The test system of data set [1] is encapsulated S. pneumoniae. Briefly: Rabbit S. pneumoniae keratitis, slit lamp examination (SLE) score. As to conditions: topical 1% cholesterol in 20% glycerol at 20 and 24 hr post-infection, 48 hours post-infection.
A short description of data set [2]: Test whether cholesterol independently causes inflammation in rabbit corneas (topical drops or intrastromal injection). The data set is classed as in vivo. As to conditions: two rabbit corneas, topical drops of 1% cholesterol in 20% glycerol over 10 hours; examined for several days. On the procedure: The applications were 30 minutes apart for the first hour, and the remaining applications were 1 hour apart. The corneas were examined periodically for several days. […] The possible effect of cholesterol injected into the corneal stroma was also examined. […] The corneas were examined every 2 hours for the first 8 hours, and then at 24, 30, and 48 hours post-injection.

For the molecule `CC(C)CCC[C@@H](C)[C@H]1CC[C@H]2[C@@H]3CC=C4C[C@@H](O)CC[C@]4(C)[C@H]3CC[C@]12C` [cholesterol], in data set [1], the “reduction in corneal damage compared to untreated corneas (SLE score)” value was determined as 35%. Further, the “inflammation or adverse effect after topical drops” value in data set [2] was “No inflammation or adverse effect of any kind was observed”.

The values above are taken from patent publication US7906498B2, “Cholesterol as an antibiotic for Streptococcus pneumoniae” (priority 2005, dated 2011).
